The list shows a part of the results. Construct or isoform of the protein are uncertain.
molecular target: GST-SBP-ILF3 (Homo sapiens) (UniProt Q12906); assay: targeted RNA Bind-n-Seq; settings: RBNS binding buffer: 25 mM Tris pH 7.5, 150 mM KCl, 3 mM MgCl2, 0.1% Tween, 0.5 mg/mL BSA, 1 mM DTT; 27 nM protein, 750 pM RNA pool; temperature not stated; high values mean tight binding; sequences stand for … in GGGUAAAAGCGAGGUGAA…CGGGACAAGUAUUAUGGG

| Sequence | binding signal (log2 fold change) |
| --- | --- |
| UUUUUUUUUUGAGAUGGGAUCCAUUUCCGG [tttttgagapaired] | 0.163 |
| GGUUGUGGUGUUGGAUCCUAACACCGCAGC [gtspaired] | -0.533 |
| GUGGUUGGUGUUGGUCCCUAACACCAGCCA [gtspaired] | -0.16 |
| UUUUUUUUUUGAGACGGGAACCGUUUCCUG [tttttgagapaired] | 0.572 |
| UUUUUUUUUUGAGAGGGGACCCCUCUUCUA [tttttgagapaired] | 0.531 |
| GUGUUGUGUGUUGGAGCCUAACACACAACG [gtspaired] | -0.131 |
| UUUUUUUUUUGAGACGGCGUCCGUCUUCUA [tttttgagapaired] | 0.79 |
| UUUUUUUUUUGAGACCGUGGCGGUCUCCGG [tttttgagapaired] | 0.545 |
| UUCUCUCUUCCUCCGCGGGAGGAGGGGAGA [ctspaired] | -0.761 |
| UUUUUUUUUUGAGACCGAGACGGUCUCCUG [tttttgagapaired] | 0.49 |
| UUUUUUUUUUGAGACCGAGACGGUUUCCGG [tttttgagapaired] | 0.742 |
| UUUUUUUUUUGAGAUGGCGACCAUUUCCGG [tttttgagapaired] | 0.831 |
| GUGUGUGGUGUUGGUUCCUAACACCGCGCA [gtspaired] | -0.724 |
| GUGGUGUGUGUUGGUACCUAACACACGCCG [gtspaired] | -0.406 |
| GGUGUUGGUGUUGGCAUCUAACACCGAUAC [gtspaired] | -0.569 |
| UUUUUUUUUUGAGAGCGGACCGUUCUCCGG [tttttgagapaired] | 0.733 |
| UUUUUUUUUUGAGAGGGAUACCCUUUCCAG [tttttgagapaired] | 0.0367 |
| UUUUUUUUUUGAGACUGACUCAGUCUCCGG [tttttgagapaired] | 0.247 |
| UUUUUUUUUUGAGAGCGGGUCGUUCUCCGG [tttttgagapaired] | 0.339 |
| UUUUUUUUUUGAGAGGGGCUCCCUCUCCGG [tttttgagapaired] | 0.67 |
| UUUUUUUUUUGAGAGGGACUCCUUCUCCUG [tttttgagapaired] | 0.361 |
| GGUGGUUGUGUUGGUUCCUAACACAGCUAC [gtspaired] | -0.352 |
| UUUUUUUUUUGAGACUGUAUCAGUCUUCUG [tttttgagapaired] | 0.249 |
| UUUUUUUUUUGAGAGGGGACCCCUCUCCAG [tttttgagapaired] | 0.915 |
| UUUUUUUUUUGAGAGGGCCACCCUCUCCUA [tttttgagapaired] | 0.831 |
| UUUUUUUUUUGAGACCGAACCGGUCUCCAG [tttttgagapaired] | 0.53 |

| Sequence | binding signal (log2 fold change) |
| --- | --- |
| GUGUGUGGUGUUGGCGUCUAACACCACAUA [gtspaired] | -0.676 |
| UUUUUUUUUUGAGACUGAGCCAGUCUCCGG [tttttgagapaired] | 0.321 |
| UUUUUUUUUUGAGAGCGUGGCGUUCUCCAG [tttttgagapaired] | 0.487 |
| UUUUUUUUUUGAGAUGGUUUCCAUUUCCAG [tttttgagapaired] | 0.19 |
| UUUUUUUUUUGAGAGGGCGACCCUCUCCAG [tttttgagapaired] | 0.531 |
| UUUUUUUUUUGAGACCGUCACGGUCUUCUG [tttttgagapaired] | 0.477 |
| UUUUUUUUUUGAGACGGAGGCCGUCUCCUA [tttttgagapaired] | 0.569 |
| UUUUUUUUUUGAGAUCGAGGCGAUCUCCUA [tttttgagapaired] | 0.192 |
| UUUUUUUUUUGAGACUGUGUCAGUCUUCUG [tttttgagapaired] | 0.662 |
| GUGUGGUGUGUUGGCUCCUAACACAUCGCG [gtspaired] | -0.62 |
| UUUUUUUUUUGAGACCGUAUCGGUCUUCUG [tttttgagapaired] | 0.346 |
| GUGUUGUGUGUUGGCCUCUAACACACAGCG [gtspaired] | -0.416 |
| UUUUUUUUUUGAGACUGUUGCAGUCUCCUA [tttttgagapaired] | 0.442 |
| GUUGUGUGUGUUGGUCUCUAACACACGCAG [gtspaired] | -0.912 |
| UUUUUUUUUUGAGAGGGUUGCCCUCUCCAG [tttttgagapaired] | 0.562 |
| GGUGUGUGUGUUGGAGUCUAACACAUACAC [gtspaired] | -0.277 |
| GUGUGUUGUGUUGGACCCUAACACAGCACG [gtspaired] | -0.277 |
| GUUGGUGGUGUUGGAACCUAACACCGCCAG [gtspaired] | -0.646 |
| UUUUUUUUUUGAGAUGGAAGCCAUCUCCUA [tttttgagapaired] | -0.13 |
| UUUUUUUUUUGAGAGCGGAUCGUUCUUCUA [tttttgagapaired] | 0.0883 |
| UUUUUUUUUUGAGAGCGUAGCGUUCUCCUA [tttttgagapaired] | 0.357 |
| GUGUGUGGUGUUGGAACCUAACACCAUACA [gtspaired] | 0.0792 |
| GUGUGUUGUGUUGGUGUCUAACACAGCACG [gtspaired] | -0.795 |
| UUUUUUUUUUGAGACCGAACCGGUUUCCUA [tttttgagapaired] | 0.094 |
| UUUUUUUUUUGAGACCGGGUCGGUCUCCGG [tttttgagapaired] | 0.462 |

— publication PMC5892938
